Measurements published in the supplement of paper PMC12217912.
The list shows a part of the results. Sequences were assembled here from the parent chain. Values near 0.05 are background.

B1: TEV protease; numbered along this chain (parent)
chain: MGESLFKGPRDYNPISSSICHLTNESDGHTTSLYGIGFGPFIITNKHLFRRNNGTLVVQSLHGVFKVKDTTTLQQHLVDGRDMIIIRMPKDFPPFPQKLKFREPQREERICLVTTNFQTKSMSSMVSDTSCTFPSGDGIFWKHWIQTKDGQCGSPLVSTRDGFIVGIHSASNFTNTNNYFTSVPKNFMELLTNQEAQQWVSGWRLNADSVLWGGHKVFMVKPEEPFQPVKEATQL

Variants of: B1
Assay: raw area under fraction-flipped curve 0-4 h after induction (AUC4h, not background-subtracted), DNA-recorder readout of cleavage of the substrate (dimensionless); higher = more cleavage of the substrate by the protease variant
Conditions: temperature: 34 °C; time window: 0-4 h after rhamnose induction
Description: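 In vivo DNA recorder in E. coli TOP10(DE3) ΔrhaA at 34 °C. Each TEVp single-site mutant (parent TEVp 0) is paired with a single-site variant of the 7-mer TEVs (canonical ENLYFQ|S). The substrate sits between flexible linkers in a Bxb1-sfGFP-TEVs-SsrA fusion, so cleavage stabilises Bxb1 and speeds flipping of a recombination array, read by NGS. The value is the raw area under the fraction-flipped curve over 0-4 h after rhamnose induction (AUC4h), with ≥20 reads per time point. It is not background-subtracted; inactive controls average about 0.047.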
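Also: Bxb1 expression induced with 0.2% (w/v) L-rhamnose at OD600 near 0.5, cultures sampled hourly, flipped fraction per protease–substrate barcode pair counted by paired-end Illumina sequencing.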

Row | Variant | area with substrate ENLYFAS | area with substrate ENLYFCS | area with substrate ENLYFDS | area with substrate ENLYFES | area with substrate ENLYFIS | area with substrate ENLYFMS | area with substrate ENLYFNS | area with substrate ENLYFRS | area with substrate ENLYFSS | area with substrate ENLYFTS | area with substrate ENLYFYS | area with substrate ENLYFFS | area with substrate ENLYFGS | area with substrate ENLYFKS | area with substrate ENLYFPS | area with substrate ENLYFVS | area with substrate ENLYFWS | area with substrate ENLYFHS | area with substrate ENLYFLS
1 | MGESLFKGPRDYNPISSSICHLTNESDGHTTSLYGIGFGPFIITNKHLFRRNVGTLVVQSLHGVFKVKDTTTLQQHLVDGRDMIIIRMPKDFPPFPQKLKFREPQREERICLVTTNFQTKSMSSMVSDTSCTFPSGDGIFWKHWIQTKDGQCGSPLVSTRDGFIVGIHSASNFTNTNNYFTSVPKNFMELLTNQEAQQWVSGWRLNADSVLWGGHKVFMVKPEEPFQPVKEATQL [N53V] | 0.0785 | 0.0615 | 0.0682 | 0.062 | 0.0558 | 0.0715 | 0.0546 | 0.0637 | 0.0623 | 0.0382 | 0.054 | – | – | – | – | – | – | – | –
2 | MGESLFKGPRDYNPISSSICHLTNESDGHTTSLYGIGFGPFIITNKHLFRRNNVTLVVQSLHGVFKVKDTTTLQQHLVDGRDMIIIRMPKDFPPFPQKLKFREPQREERICLVTTNFQTKSMSSMVSDTSCTFPSGDGIFWKHWIQTKDGQCGSPLVSTRDGFIVGIHSASNFTNTNNYFTSVPKNFMELLTNQEAQQWVSGWRLNADSVLWGGHKVFMVKPEEPFQPVKEATQL [G54V] | 0.054 | 0.0607 | 0.0672 | 0.0552 | 0.052 | 0.0464 | 0.0586 | – | 0.0597 | 0.0515 | – | 0.0772 | 0.062 | 0.0552 | 0.0608 | 0.0595 | 0.0631 | – | –
3 | MGESLFKGPRDYNPISSSICHLTNESDGHTTSLYGIGFGPFIITNKHLFRRNNGSLVVQSLHGVFKVKDTTTLQQHLVDGRDMIIIRMPKDFPPFPQKLKFREPQREERICLVTTNFQTKSMSSMVSDTSCTFPSGDGIFWKHWIQTKDGQCGSPLVSTRDGFIVGIHSASNFTNTNNYFTSVPKNFMELLTNQEAQQWVSGWRLNADSVLWGGHKVFMVKPEEPFQPVKEATQL [T55S] | 0.0493 | 0.0642 | – | 0.0452 | 0.0584 | 0.0718 | 0.0598 | 0.0604 | – | 0.0541 | 0.0795 | 0.0622 | – | 0.0515 | 0.0596 | 0.0663 | 0.0591 | 0.0489 | –
4 | MGESLFKGPRDYNPISSSICHLTNESDGHTTSLYGIGFGPFIITNKHLFRRNNGTLVVISLHGVFKVKDTTTLQQHLVDGRDMIIIRMPKDFPPFPQKLKFREPQREERICLVTTNFQTKSMSSMVSDTSCTFPSGDGIFWKHWIQTKDGQCGSPLVSTRDGFIVGIHSASNFTNTNNYFTSVPKNFMELLTNQEAQQWVSGWRLNADSVLWGGHKVFMVKPEEPFQPVKEATQL [Q59I] | 0.0595 | – | – | 0.077 | 0.0511 | 0.0497 | – | 0.0849 | 0.0448 | 0.0667 | 0.072 | 0.0737 | – | 0.0672 | 0.0588 | – | – | 0.0567 | 0.058
5 | MGESLFKGPRDYNPISSSICHLTNESDGHTTSLYGIGFGPFIITNKHLFRRNNGTLVVQHLHGVFKVKDTTTLQQHLVDGRDMIIIRMPKDFPPFPQKLKFREPQREERICLVTTNFQTKSMSSMVSDTSCTFPSGDGIFWKHWIQTKDGQCGSPLVSTRDGFIVGIHSASNFTNTNNYFTSVPKNFMELLTNQEAQQWVSGWRLNADSVLWGGHKVFMVKPEEPFQPVKEATQL [S60H] | 0.04 | 0.0572 | 0.0559 | 0.0875 | 0.0583 | 0.0668 | 0.0664 | 0.053 | 0.0596 | 0.0555 | – | 0.0639 | – | 0.0633 | 0.05 | 0.0633 | 0.0517 | 0.041 | –
6 | MGESLFKGPRDYNPISSSICHLTNESDGHTTSLYGIGFGPFIITNKHLFRRNNGTLVVQSWHGVFKVKDTTTLQQHLVDGRDMIIIRMPKDFPPFPQKLKFREPQREERICLVTTNFQTKSMSSMVSDTSCTFPSGDGIFWKHWIQTKDGQCGSPLVSTRDGFIVGIHSASNFTNTNNYFTSVPKNFMELLTNQEAQQWVSGWRLNADSVLWGGHKVFMVKPEEPFQPVKEATQL [L61W] | 0.0419 | 0.0554 | 0.0611 | 0.0623 | 0.0631 | 0.0581 | 0.0741 | 0.0575 | 0.066 | 0.0553 | 0.0603 | 0.0441 | – | 0.06 | 0.0581 | 0.0535 | 0.0576 | 0.0631 | 0.0752
7 | MGESLFKGPRDYNPISSSICHLTNESDGHTTSLYGIGFGPFIITNKHLFRRNNGTLVVQSLAGVFKVKDTTTLQQHLVDGRDMIIIRMPKDFPPFPQKLKFREPQREERICLVTTNFQTKSMSSMVSDTSCTFPSGDGIFWKHWIQTKDGQCGSPLVSTRDGFIVGIHSASNFTNTNNYFTSVPKNFMELLTNQEAQQWVSGWRLNADSVLWGGHKVFMVKPEEPFQPVKEATQL [H62A] | 0.0907 | 0.0484 | – | – | 0.0524 | 0.0501 | 0.0945 | 0.0743 | 0.0555 | 0.0649 | 0.0425 | – | – | – | 0.0773 | 0.0139 | – | – | –
8 | MGESLFKGPRDYNPISSSICHLTNESDGHTTSLYGIGFGPFIITNKHLFRRNNGTLVVQSLHGVGKVKDTTTLQQHLVDGRDMIIIRMPKDFPPFPQKLKFREPQREERICLVTTNFQTKSMSSMVSDTSCTFPSGDGIFWKHWIQTKDGQCGSPLVSTRDGFIVGIHSASNFTNTNNYFTSVPKNFMELLTNQEAQQWVSGWRLNADSVLWGGHKVFMVKPEEPFQPVKEATQL [F65G] | 0.0652 | – | 0.0693 | 0.0748 | 0.0544 | 0.0646 | 0.0587 | 0.0569 | 0.053 | – | 0.0784 | 0.0647 | 0.039 | 0.0521 | 0.0616 | 0.0629 | 0.0487 | – | –
9 | MGESLFKGPRDYNPISSSICHLTNESDGHTTSLYGIGFGPFIITNKHLFRRNNGTLVVQSLHGVLKVKDTTTLQQHLVDGRDMIIIRMPKDFPPFPQKLKFREPQREERICLVTTNFQTKSMSSMVSDTSCTFPSGDGIFWKHWIQTKDGQCGSPLVSTRDGFIVGIHSASNFTNTNNYFTSVPKNFMELLTNQEAQQWVSGWRLNADSVLWGGHKVFMVKPEEPFQPVKEATQL [F65L] | 0.0523 | – | – | – | 0.0508 | 0.0598 | 0.0589 | 0.0555 | – | – | 0.0429 | – | 0.0676 | – | 0.0474 | – | 0.0451 | – | –
